The whole screen tested about 45,000 compounds, of which about 200 (0.44%) were called active. Another 7% or so got no clear call; they are omitted. Calls come from the whole dose curve; as a rule, active = well fitted activation curve with a large enough effect; inconclusive = small, poorly fitted or top-dose-only effect; inactive = no such curve, though single readings can be large or run the other way. Some of the results follow.
Test: qHTS of TDP-43 Inhibitors: NCGC Sytravon Library Screen; note: 0% is about no effect; nearly all actives have a fitted effect of over 55% in size
Conditions: yeast TDP-43 toxicity rescue, BacTiter-Glo growth, 24 h; series mostly up to 46.1 µM; growth rescue (activation): at the top concentration
Summary of the method: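 TDP-43-expressing yeast, pregrown in raffinose, seeded at OD600 0.02 in galactose medium with compound for 24 hr at 30 deg C. Growth read by BacTiter-Glo luminescence, so rescue of toxicity appears as activation.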

| SMILES | growth rescue (activation) |
| --- | --- |
| CCN(CC)S(=O)(=O)c1ccc(C)c(NC(=O)COc2ccc3c(C)cc(=O)oc3c2)c1 | inactive: 14.6% |
| OC(CNC1CCCC1)COCCOc1ccc(Br)cc1 (stereo unspecified) | inactive: 24.2% |
| COc1ccc(-c2n[nH]c(=S)n2-c2cc(OC)ccc2OC)cc1 | inactive: 8.02% |
| S=C(Nc1ccc(Cl)c(Cl)c1)NC1CCN(Cc2ccccc2)CC1 | inactive: 10.7% |
| Cc1ccc2nc(-c3ccc(O)cc3)c(Nc3ccc(Cl)cc3)n2c1 | inactive: 15% |
| CCCc1cc(=O)[nH]c(SCC(=O)N2CCN(c3ccccc3OC)CC2)n1 | inactive: 7.55% |
| O=C(CSc1nnc(-c2ccco2)n1-c1ccccc1)Nc1c(Cl)cc(Cl)cc1C(=O)O | inactive: 0.278% |
| CC(C)(CO)NC(=O)CC1C(=O)NCCN1Cc1ccc(-c2ccccc2)cc1 (stereo unspecified) | inactive: -6.41% |
| COc1cc(C=C2C(=O)OC(c3ccccc3)OC2=O)cc(Br)c1O (stereo unspecified) | inactive: -6.39% |
| OCCNCc1cc(Br)ccc1OCc1ccc(F)cc1 | inactive: -2.9% |
| COc1ccc(C(C)NC(=O)C2CCN(CCCc3ccccc3)CC2)cc1OC (stereo unspecified) | inactive: 0.91% |
| COc1ccc(N(C)C(=O)Cn2c(=O)oc3ccccc32)c(OC)c1 | inactive: 14.3% |
| O=[N+]([O-])c1ccc(N2CCN(c3ccccc3O)CC2)cc1 | inactive: 24.8% |
| COc1ccc(CCNC(=O)C2CC(O)CN2S(=O)(=O)c2ccc(Cl)cc2)cc1OC (stereo unspecified) | inactive: -22.2% |
| O=C(c1ccc(S(=O)(=O)N2CCOCC2)cc1)N1CCc2ccccc21 | inactive: 11.9% |
| CN(C)S(=O)(=O)c1ccc2c(c1)nc(CCC(=O)O)n2C | inactive: 12.8% |
| O=C(NCCNCc1cccc(Cl)c1)c1ccco1 | inactive: -4.59% |
| Cc1ccccc1OCC(=O)OCC(=O)NCC1CCCO1 (stereo unspecified) | inactive: 9.63% |
| CCOC(=O)C1CCCN(C(=O)c2ccc(OC)c([N+](=O)[O-])c2)C1 (stereo unspecified) | inactive: -25.2% |
| CCN(CC)CCN(C)c1ccc(N2C(=O)C3CC=CCC3C2=O)cc1[N+](=O)[O-] (stereo unspecified) | inactive: 5.15% |
| O=C(NC1CCN(S(=O)(=O)c2cccc([N+](=O)[O-])c2)CC1)C1CCCCC1 | inactive: -10.6% |
| CCCNC(=O)C1(C)CCCN(Cc2ccccc2N(C)C)C1 (stereo unspecified) | inactive: 10.8% |

| SMILES | growth rescue (activation) |
| --- | --- |
| COc1cc(/C=N/N=C2/NC(=O)C(Cc3ccc(F)cc3)S2)ccc1O (stereo unspecified) | inactive: -17% |
| Cn1nc(C(=O)OCC(=O)Nc2ccc(F)cc2Cl)c2ccccc2c1=O | inactive: 7.25% |
| O=C(Nc1ccc(NC(=O)C2CCCCC2)nc1)c1cccc(F)c1 | inactive: 11.8% |
| COc1ccc(CC(=O)NCC2CCCN(Cc3ccc(OC(F)(F)F)cc3)C2)cc1 (stereo unspecified) | inactive: 2.21% |
| Cn1c(=O)c2c(nc(Br)n2Cc2nnc(N)s2)n(C)c1=O | inactive: 9.51% |
| COc1cc(/C=C/C(=O)O)cc(S(=O)(=O)Nc2ccc3c(c2)CCC3)c1OC | inactive: -12.6% |
| CCOC(=O)c1c(C)oc2c1c(C=NCC1CCCO1)c(O)c1ccccc12 (stereo unspecified) | inactive: -9.97% |
| O=C1NCC(c2ccccc2)C1C(=O)N/N=C/c1ccc(Cl)s1 (stereo unspecified) | inactive: -4.47% |
| O=C(CN1CCCc2ccccc21)N/N=C/c1ccc(F)cc1F | inactive: -11.4% |
| Cc1cc(CSc2ccccc2)ccc1NC(=O)c1ccc(CN2CCOCC2)cc1 | inactive: 0.582% |
| OC(c1ccc(F)cc1)c1ncc(-c2ccc3ccccc3c2)[nH]1 (stereo unspecified) | inactive: -6.1% |
| CC(C)Oc1ccc(C(=O)NC2CCN(Cc3ccccc3)CC2)cc1 | inactive: 7.67% |
| O=C(CNS(=O)(=O)c1ccccc1)NCC(=O)OCc1ccc(Br)cc1 | inactive: -10.4% |
| CCN(CC)S(=O)(=O)c1ccc2oc(Nc3ccc(OC)cc3)nc2c1 | inactive: 15.1% |
| COc1ccc(NC(=O)CC2(CC(=O)N3CCOCC3)CCCC2)cc1Cl | inactive: 13.8% |
| COc1cccc(CNCc2ccc(C(=O)O)cc2)c1OC | inactive: 7.29% |
| CCc1ccc(-c2nc(CSCC(=O)NC3CC3)c(C)o2)cc1 | inactive: -16.7% |
| O=C(Cn1cnc2sc(-c3ccccc3)cc2c1=O)NCCc1ccccc1 | inactive: 6.69% |
| CCOc1cc(/C=N/NC(=O)CCCC(=O)NC2CCCCC2)ccc1O | inactive: -5.06% |
| COC(=O)c1ccc(NC(=S)NC2c3ccccc3CC2O)cc1 (stereo unspecified) | inactive: -3.01% |
| O=C(Nc1cccc(F)c1)N1CCC(n2c(=O)[nH]c3ccccc32)CC1 | inactive: -0.145% |
| Cc1cc(OCC(=O)OCC(=O)N(C)C2CCS(=O)(=O)C2)ccc1Cl (stereo unspecified) | inactive: -19.7% |

| SMILES | growth rescue (activation) |
| --- | --- |
| CCCCN(C(=O)c1ccncc1)c1c(N)n(CCC)c(=O)[nH]c1=O | inactive: 0.585% |
| CC(=O)c1ccc(N2CCN(C(=O)c3cc(-c4ccncc4)nc4ccc(Cl)cc34)CC2)cc1 | inactive: -1.69% |
| Cc1nn(-c2ccccc2)c(Cl)c1/C=C1\SC(=S)N(C)C1=O | inactive: -4.45% |
| CCOCCOC(=O)c1[nH]c2c(c1C)C(=O)CC(c1ccccc1)C2 (stereo unspecified) | inactive: 18.4% |
| COc1ccc(Br)cc1/C=N/NC(=O)c1cccnc1 | inactive: -26.1% |
| Cc1nn(C(=O)COc2ccccc2)c(C)c1Sc1ccccc1 | inactive: 28.7% |
| CCc1ccccc1NC(=O)Cn1nnc(-c2nc(-c3ccc(C)cc3)no2)c1N | inactive: 7.19% |
| Cc1c(NC(=O)CSc2nnc(Nc3ccccc3)s2)c(=O)n(-c2ccccc2)n1C | inactive: 3.57% |
| CCOC(=O)N(C)S(=O)(=O)c1ccccc1[N+](=O)[O-] | inactive: -15.9% |
| CSc1ccc(CN2CCC2(C)C(=O)NCc2cccc(C(F)(F)F)c2)cc1 (stereo unspecified) | inactive: 19.6% |
| COc1ccccc1-n1cn[nH]c1=S | inactive: 18.1% |
| O=C(O)c1ccc(N/N=C/c2ccc(-c3ccc(Br)cc3)o2)cc1 | inactive: 17.5% |
| O=C(COC(=O)C1CCN(/C=C/C(=O)C(F)(F)F)CC1)Nc1ccccc1 | inactive: -12.6% |
| Cc1noc(C)c1COc1ccc(C(=O)O)cc1 | inactive: 7.18% |
| Cc1ccc(C(=O)NNC(=O)c2cccs2)cc1 | inactive: 24.2% |
| CCc1nc2ccc(C(=O)NCc3ccccc3OC)cn2c1N(C=O)CCC(C)C | inactive: 17.3% |
| CNC(=O)c1cc(S(=O)(=O)Nc2ccc3c(c2)OCO3)ccc1C | inactive: 7.85% |
| COc1ccc(/C=C(\C#N)c2cc(OC)c(OC)cc2[N+](=O)[O-])cc1 | inactive: 15.8% |
| COc1cc(OC)c(NC(=S)Nc2cccc(C)c2)cc1Cl | inactive: -23.3% |
| COc1ccc(/C=N/NC(=O)c2cc[n+]([O-])cc2)cc1O | inactive: -4.01% |
| COc1cc2c(cc1OC)CN(c1ccc3ccccc3n1)CC2 | inactive: 11.7% |
| CCOc1cc(CNC(=O)CCCn2c(=O)c3cccn3c3cccnc32)cc(OCC)c1OCC | inactive: 15.2% |

| SMILES | growth rescue (activation) |
| --- | --- |
| COc1ccccc1-c1nc(C#N)c(NCc2ccc(F)cc2)o1 | inactive: 22.5% |
| COc1ccc(OC)c(NC(=O)C2=C(C)Nc3ncnn3C2c2cccs2)c1 (stereo unspecified) | inactive: 32.8% |
| c1ccc(-c2nccc(-c3ccco3)n2)nc1 | inactive: 24.1% |
| CC(C)c1ccc(CN2CCC2(C)C(=O)Nc2cnc3ccccc3c2)cc1 (stereo unspecified) | inactive: 4.56% |
| COc1cccc(-c2cnc(C(O)c3cccc(CN4CCCCC4)c3)[nH]2)c1 (stereo unspecified) | inactive: 2.81% |
| O=C(NCCO)C1CCN(S(=O)(=O)c2ccc(F)cc2)CC1 | inactive: 4.64% |
| CCc1ccc(NC(=O)c2cc(-c3ccc4c(c3)OCO4)on2)cc1 | inactive: -7.93% |
| COc1cc(-n2c(=O)c3ccccc3n(CC(=O)c3ccc(F)cc3)c2=O)cc(OC)c1OC | inactive: 10.1% |
| C[C@@H](C(=O)Nc1cccc(S(=O)(=O)N2CCOCC2)c1)N1C(=O)C2CC=CCC2C1=O (stereo partly specified) | inactive: 8.92% |
| C=CCn1c(COc2ccc(F)cc2)nnc1SCC(=O)Nc1cccc(S(N)(=O)=O)c1 | inactive: 0.218% |
| O=C(c1ccco1)N1CCN(CC(O)COc2ccc(Br)cc2)CC1 (stereo unspecified) | inactive: 5.71% |
| CCc1ccc(NC(=O)c2cc(-c3cccs3)on2)cc1 | inactive: 28.6% |
| O=C1CCC/C(=N/NC(=O)C2CCN(S(=O)(=O)c3cccs3)CC2)C1 | inactive: 2.17% |
| Cc1ccc(C(=O)NCCc2ccc(S(=O)(=O)N3CCCC3)cc2)cc1 | inactive: -0.971% |
| COC(=O)C(NC(C)=O)(Nc1cccc(C)n1)C(F)(F)F (stereo unspecified) | inactive: 7.8% |
| COC(=O)c1sccc1NC(=S)NCc1ccc(Cl)cc1 | inactive: 34.8% |
| Cn1c(=O)oc2cc(S(=O)(=O)N3CCOCC3)ccc21 | inactive: 23.1% |
| Cc1ccc(Nc2nnc(SCC(=O)Nc3cccc(S(=O)(=O)NC4=NCCCCC4)c3)s2)cc1 | inactive: -8.2% |
| Cc1n[nH]c(C)c1Sc1ccccc1N=Cc1cc(Cl)cc([N+](=O)[O-])c1O | inactive: -37.7% |
| COc1ccc(CNCCC(c2ccc(F)cc2)c2ccc(OC(C)C)cc2)cc1OC (stereo unspecified) | inactive: -1.39% |
| COc1ccccc1CNC(=O)CCc1c(C)nc2cc(-c3ccccc3OC)nn2c1C | inactive: 9.05% |
| Cc1nnc(SCC(=O)NC(=O)NC(C)C)s1 | inactive: 0.213% |

| SMILES | growth rescue (activation) |
| --- | --- |
| CCc1ccc(NC(=O)COC(=O)c2cccs2)cc1 | inactive: 17.6% |
| CC(=O)c1ccc(NC(=O)C(C)Sc2ccccn2)cc1 (stereo unspecified) | inactive: 11.1% |
| N=c1c(C(=O)NC2CCCC2)cc2c(=O)n3ccccc3nc2n1CC1CCCO1 (stereo unspecified) | inactive: 7.82% |
| CC(=O)Nc1ccc(NC(=O)C2CCCN2C(=O)Nc2cccc(F)c2)cc1 (stereo unspecified) | inactive: -19.3% |
| CCn1cc(C(=O)O)c(=O)c2cnc(N3CCN(C(=S)NC(=O)c4ccccc4)CC3)nc21 | inactive: -4.76% |
| CC(C)C(NS(=O)(=O)c1ccccc1)C(=O)OCc1cc([N+](=O)[O-])cc2c1OCOC2 (stereo unspecified) | inactive: 2.66% |
| COc1ccccc1CNC(=O)c1ccc(OCC2CCCO2)cc1 (stereo unspecified) | inactive: 25.2% |
| CCOC(=O)c1ccc(NC(=O)CCc2ccc(C)o2)cc1 | inactive: 20.1% |
| CCNc1nc2c(c(=O)[nH]c(=O)n2C)n1CC(O)COc1ccc(Cl)cc1Cl (stereo unspecified) | inactive: 4.97% |
| O=C(CCCN1C(=O)/C(=C\c2ccccc2)SC1=S)Nc1cccc(C(=O)O)c1 | inactive: 12.5% |
| C#CCOc1ccc(C2C3=C(CCCC3=O)N(CC(=O)O)C3=C2C(=O)CCC3)cc1Br | inactive: 1.11% |
| COc1ccccc1N1CCN(C2CCCN(C(=O)CN3CCCC3=O)C2)CC1 (stereo unspecified) | inactive: 10.2% |
| CCn1c(N)[n+](CC(=O)Nc2ccc(SC(F)F)cc2)c2ccccc21 | inactive: 7.43% |
| COc1cccc(C(=O)/C=C/c2ccc(N3CCCCC3)c([N+](=O)[O-])c2)c1 | inactive: 6.76% |
| CC(C)N(C)c1ncnc2c1ncn2[C@H]1CN(Cc2ccc(F)cc2)C[C@@H](CO)O1 | inactive: 20.6% |
| Cc1ccc(C)c(NC(=O)CSc2nc3ccc(N4C(=O)c5ccccc5C4=O)cc3s2)c1 | inactive: -0.281% |
| C#CC[N+]1(CC#Cc2ccccc2)CCCC1 | inactive: 3.47% |
| CCN(CC)S(=O)(=O)c1ccc(N/N=C/c2ccc(OC)c(OC)c2OC)nc1 | inactive: 0.863% |

Reference: PubChem BioAssay AID1347073 (National Center for Advancing Translational Sciences (NCATS), 2019)
